In article PMC12102759 (2025):

B1: NFE2L1 peptide 226-241 (Endoplasmic reticulum membrane sensor NFE2L1), 16-mer library wild type / KEAP1 KELCH (KEAP1 6 Kelch repeats, […]) (parent complex)
chain 1: RNLLVDGETGESFPAQ
chain 2: not shown
B2: CAPRIN1 peptide 364-379 (Caprin-1), 16-mer library wild type / G3BP1 NFT2 (G3BP1 NTF2 domain, […]) (parent complex)
chain 1: AQMQGPYNFIQDSMLD
chain 2: not shown

Variants of: B1
Assay: proteomic peptide phage display deep mutational scan (ProP-PD DMS): M13 P8 16-mer library selected against immobilised GST-tagged bait for four days (rounds), NGS of the eluted pools per day and pseudo-replica; bait immobilised on MaxiSorp plates (10 µg), library pre-cleared on GST, 2 h binding at 4 °C, five washes; one round per day, days 1-4; value from days 2 and 3

In order of falling screen value:
1. chain 1 F13V  0.0169 average fractional NGS count over selection days 2 and 3 (reads of this peptide / all reads for the bait, averaged over …
2. chain 1 A15F  0.00934 average fractional NGS count over selection days 2 and 3 (reads of this peptide / all reads for the bait, averaged over …
3. chain 1 L4P  0.00704 average fractional NGS count over selection days 2 and 3 (reads of this peptide / all reads for the bait, averaged over …
4. chain 1 G7H  0.00649 average fractional NGS count over selection days 2 and 3 (reads of this peptide / all reads for the bait, averaged over …
5. chain 1 A15S  0.00474 average fractional NGS count over selection days 2 and 3 (reads of this peptide / all reads for the bait, averaged over …
6. chain 1 G7M  0.00399 average fractional NGS count over selection days 2 and 3 (reads of this peptide / all reads for the bait, averaged over …
7. chain 1 P14S  0.00361 average fractional NGS count over selection days 2 and 3 (reads of this peptide / all reads for the bait, averaged over …
8. chain 1 P14L  0.00233 average fractional NGS count over selection days 2 and 3 (reads of this peptide / all reads for the bait, averaged over …
9. chain 1 G7T  0.00226 average fractional NGS count over selection days 2 and 3 (reads of this peptide / all reads for the bait, averaged over …
10. chain 1 F13R  0.00194 average fractional NGS count over selection days 2 and 3 (reads of this peptide / all reads for the bait, averaged over …
11. chain 1 V5P  0.00194 average fractional NGS count over selection days 2 and 3 (reads of this peptide / all reads for the bait, averaged over …
12. chain 1 V5E  0.00172 average fractional NGS count over selection days 2 and 3 (reads of this peptide / all reads for the bait, averaged over …
13. chain 1 P14H  0.00165 average fractional NGS count over selection days 2 and 3 (reads of this peptide / all reads for the bait, averaged over …
14. chain 1 F13Y  0.00158 average fractional NGS count over selection days 2 and 3 (reads of this peptide / all reads for the bait, averaged over …
15. chain 1 V5W  0.00157 average fractional NGS count over selection days 2 and 3 (reads of this peptide / all reads for the bait, averaged over …
16. chain 1 S12A  0.00138 average fractional NGS count over selection days 2 and 3 (reads of this peptide / all reads for the bait, averaged over …
17. chain 1 T9S  0.00132 average fractional NGS count over selection days 2 and 3 (reads of this peptide / all reads for the bait, averaged over …
18. chain 1 G7L  0.00132 average fractional NGS count over selection days 2 and 3 (reads of this peptide / all reads for the bait, averaged over …
19. chain 1 F13L  0.00118 average fractional NGS count over selection days 2 and 3 (reads of this peptide / all reads for the bait, averaged over …
20. chain 1 L4N  0.00115 average fractional NGS count over selection days 2 and 3 (reads of this peptide / all reads for the bait, averaged over …
21. chain 1 A15V  0.00112 average fractional NGS count over selection days 2 and 3 (reads of this peptide / all reads for the bait, averaged over …
22. chain 1 S12K  0.00103 average fractional NGS count over selection days 2 and 3 (reads of this peptide / all reads for the bait, averaged over …
23. chain 1 V5G  0.000935 average fractional NGS count over selection days 2 and 3 (reads of this peptide / all reads for the bait, averaged over …
24. chain 1 F13W  0.000898 average fractional NGS count over selection days 2 and 3 (reads of this peptide / all reads for the bait, averaged over …
25. chain 1 A15Y  0.00082 average fractional NGS count over selection days 2 and 3 (reads of this peptide / all reads for the bait, averaged over …
26. chain 1 V5L  0.000716 average fractional NGS count over selection days 2 and 3 (reads of this peptide / all reads for the bait, averaged over …
27. chain 1 T9N  0.000633 average fractional NGS count over selection days 2 and 3 (reads of this peptide / all reads for the bait, averaged over …
28. chain 1 S12T  0.000578 average fractional NGS count over selection days 2 and 3 (reads of this peptide / all reads for the bait, averaged over …
29. chain 1 V5M  0.000559 average fractional NGS count over selection days 2 and 3 (reads of this peptide / all reads for the bait, averaged over …
30. chain 1 A15M  0.000532 average fractional NGS count over selection days 2 and 3 (reads of this peptide / all reads for the bait, averaged over …
31. chain 1 V5N  0.00052 average fractional NGS count over selection days 2 and 3 (reads of this peptide / all reads for the bait, averaged over …
32. chain 1 S12H  0.000505 average fractional NGS count over selection days 2 and 3 (reads of this peptide / all reads for the bait, averaged over …
33. chain 1 F13G  0.000483 average fractional NGS count over selection days 2 and 3 (reads of this peptide / all reads for the bait, averaged over …
34. chain 1 S12M  0.000458 average fractional NGS count over selection days 2 and 3 (reads of this peptide / all reads for the bait, averaged over …
35. chain 1 P14Q  0.000451 average fractional NGS count over selection days 2 and 3 (reads of this peptide / all reads for the bait, averaged over …
36. chain 1 S12L  0.000448 average fractional NGS count over selection days 2 and 3 (reads of this peptide / all reads for the bait, averaged over …
37. chain 1 S12R  0.000442 average fractional NGS count over selection days 2 and 3 (reads of this peptide / all reads for the bait, averaged over …
38. chain 1 P14E  0.000426 average fractional NGS count over selection days 2 and 3 (reads of this peptide / all reads for the bait, averaged over …
39. chain 1 S12G  0.000406 average fractional NGS count over selection days 2 and 3 (reads of this peptide / all reads for the bait, averaged over …
40. chain 1 G7N  0.000405 average fractional NGS count over selection days 2 and 3 (reads of this peptide / all reads for the bait, averaged over …
41. chain 1 F13I  0.000387 average fractional NGS count over selection days 2 and 3 (reads of this peptide / all reads for the bait, averaged over …
42. chain 1 A15D  0.000361 average fractional NGS count over selection days 2 and 3 (reads of this peptide / all reads for the bait, averaged over …
43. chain 1 L4S  0.000353 average fractional NGS count over selection days 2 and 3 (reads of this peptide / all reads for the bait, averaged over …
44. chain 1 S12D  0.00035 average fractional NGS count over selection days 2 and 3 (reads of this peptide / all reads for the bait, averaged over …
45. chain 1 S12V  0.000339 average fractional NGS count over selection days 2 and 3 (reads of this peptide / all reads for the bait, averaged over …
46. chain 1 S12E  0.000332 average fractional NGS count over selection days 2 and 3 (reads of this peptide / all reads for the bait, averaged over …
47. chain 1 P14D  0.000322 average fractional NGS count over selection days 2 and 3 (reads of this peptide / all reads for the bait, averaged over …
48. chain 1 S12F  0.000312 average fractional NGS count over selection days 2 and 3 (reads of this peptide / all reads for the bait, averaged over …
49. chain 1 L4D  0.000281 average fractional NGS count over selection days 2 and 3 (reads of this peptide / all reads for the bait, averaged over …
50. chain 1 V5I  0.000268 average fractional NGS count over selection days 2 and 3 (reads of this peptide / all reads for the bait, averaged over …
51. chain 1 V5F  0.000252 average fractional NGS count over selection days 2 and 3 (reads of this peptide / all reads for the bait, averaged over …
52. chain 1 P14V  0.00024 average fractional NGS count over selection days 2 and 3 (reads of this peptide / all reads for the bait, averaged over …
53. chain 1 L4Y  0.000215 average fractional NGS count over selection days 2 and 3 (reads of this peptide / all reads for the bait, averaged over …
54. chain 1 S12Y  0.000205 average fractional NGS count over selection days 2 and 3 (reads of this peptide / all reads for the bait, averaged over …
55. chain 1 F13P  0.000191 average fractional NGS count over selection days 2 and 3 (reads of this peptide / all reads for the bait, averaged over …
56. chain 1 P14A  0.000189 average fractional NGS count over selection days 2 and 3 (reads of this peptide / all reads for the bait, averaged over …
57. chain 1 A15T  0.000185 average fractional NGS count over selection days 2 and 3 (reads of this peptide / all reads for the bait, averaged over …
58. chain 1 V5K  0.000183 average fractional NGS count over selection days 2 and 3 (reads of this peptide / all reads for the bait, averaged over …
59. chain 1 P14T  0.00017 average fractional NGS count over selection days 2 and 3 (reads of this peptide / all reads for the bait, averaged over …
60. chain 1 F13T  0.000161 average fractional NGS count over selection days 2 and 3 (reads of this peptide / all reads for the bait, averaged over …
61. chain 1 V5Q  0.00016 average fractional NGS count over selection days 2 and 3 (reads of this peptide / all reads for the bait, averaged over …
62. chain 1 L4W  0.000151 average fractional NGS count over selection days 2 and 3 (reads of this peptide / all reads for the bait, averaged over …
63. chain 1 F13K  0.000149 average fractional NGS count over selection days 2 and 3 (reads of this peptide / all reads for the bait, averaged over …
64. chain 1 F13H  0.000138 average fractional NGS count over selection days 2 and 3 (reads of this peptide / all reads for the bait, averaged over …
65. chain 1 P14K  0.000129 average fractional NGS count over selection days 2 and 3 (reads of this peptide / all reads for the bait, averaged over …
66. chain 1 F13N  0.000127 average fractional NGS count over selection days 2 and 3 (reads of this peptide / all reads for the bait, averaged over …
67. chain 1 S12P  0.000126 average fractional NGS count over selection days 2 and 3 (reads of this peptide / all reads for the bait, averaged over …
68. chain 1 S12Q  0.000125 average fractional NGS count over selection days 2 and 3 (reads of this peptide / all reads for the bait, averaged over …
69. chain 1 L4T  0.000116 average fractional NGS count over selection days 2 and 3 (reads of this peptide / all reads for the bait, averaged over …
70. chain 1 T9H  0.000108 average fractional NGS count over selection days 2 and 3 (reads of this peptide / all reads for the bait, averaged over …

Variants of: B2
Assay: as above

In order of rising screen value:
1. chain 1 A1M  0.000181 average fractional NGS count over selection days 2 and 3 (reads of this peptide / all reads for the bait, averaged over …
2. chain 1 D12H  0.000291 average fractional NGS count over selection days 2 and 3 (reads of this peptide / all reads for the bait, averaged over …
3. chain 1 Y7V  0.000965 average fractional NGS count over selection days 2 and 3 (reads of this peptide / all reads for the bait, averaged over …
4. chain 1 M14I  0.00149 average fractional NGS count over selection days 2 and 3 (reads of this peptide / all reads for the bait, averaged over …
5. chain 1 Q2Y  0.00483 average fractional NGS count over selection days 2 and 3 (reads of this peptide / all reads for the bait, averaged over …
